To fix the notation:
T1: RBFOX1 RRM (Homo sapiens, UniProt Q9NWB1 109-208)
T1 sequence: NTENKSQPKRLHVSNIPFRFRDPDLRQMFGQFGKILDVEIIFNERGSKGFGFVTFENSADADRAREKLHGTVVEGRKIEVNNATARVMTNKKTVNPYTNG

B1: UUUGCAU (DNA:RNA)
RNA: GGGAGACCGGAAUUCAGAUUGUCCUUUGCAUUUAAAUCCCGUCGUAGCCACCA
DNA 1: CAATCTGAATTCCGGTCTCCC
DNA 2: TGGTGGCTACGACGGGATT
B2: UUAUGCC (DNA:RNA)
RNA: B1 RNA with U27A, G28U, C29G, A30C, U31C
DNA 1: CAATCTGAATTCCGGTCTCCC
DNA 2: TGGTGGCTACGACGGGATT
B3: AAGUCCC (DNA:RNA)
RNA: B1 RNA with U25A, U26A, U27G, G28U, A30C, U31C
DNA 1: CAATCTGAATTCCGGTCTCCC
DNA 2: TGGTGGCTACGACGGGATT
B4: AUGGGUA (DNA:RNA)
RNA: B1 RNA with U25A, U27G, C29G, A30U, U31A
DNA 1: CAATCTGAATTCCGGTCTCCC
DNA 2: TGGTGGCTACGACGGGATT
B5: UCGACUA (DNA:RNA)
RNA: B1 RNA with U26C, U27G, G28A, A30U, U31A
DNA 1: CAATCTGAATTCCGGTCTCCC
DNA 2: TGGTGGCTACGACGGGATT
B6: CGUGCCA (DNA:RNA)
RNA: B1 RNA with U25C, U26G, A30C, U31A
DNA 1: CAATCTGAATTCCGGTCTCCC
DNA 2: TGGTGGCTACGACGGGATT
B7: UCAUUGU (DNA:RNA)
RNA: B1 RNA with U26C, U27A, G28U, C29U, A30G
DNA 1: CAATCTGAATTCCGGTCTCCC
DNA 2: TGGTGGCTACGACGGGATT
B8: GCAACUU (DNA:RNA)
RNA: B1 RNA with U25G, U26C, U27A, G28A, A30U
DNA 1: CAATCTGAATTCCGGTCTCCC
DNA 2: TGGTGGCTACGACGGGATT
B9: GAAUCGG (DNA:RNA)
RNA: B1 RNA with U25G, U26A, U27A, G28U, A30G, U31G
DNA 1: CAATCTGAATTCCGGTCTCCC
DNA 2: TGGTGGCTACGACGGGATT
B10: UCGGCCU (DNA:RNA)
RNA: B1 RNA with U26C, U27G, A30C
DNA 1: CAATCTGAATTCCGGTCTCCC
DNA 2: TGGTGGCTACGACGGGATT
B11: UUUAUAA (DNA:RNA)
RNA: B1 RNA with G28A, C29U, U31A
DNA 1: CAATCTGAATTCCGGTCTCCC
DNA 2: TGGTGGCTACGACGGGATT
B12: CUCUUCG (DNA:RNA)
RNA: B1 RNA with U25C, U27C, G28U, C29U, A30C, U31G
DNA 1: CAATCTGAATTCCGGTCTCCC
DNA 2: TGGTGGCTACGACGGGATT
B13: CAUAGCG (DNA:RNA)
RNA: B1 RNA with U25C, U26A, G28A, C29G, A30C, U31G
DNA 1: CAATCTGAATTCCGGTCTCCC
DNA 2: TGGTGGCTACGACGGGATT
B14: CAUCCCU (DNA:RNA)
RNA: B1 RNA with U25C, U26A, G28C, A30C
DNA 1: CAATCTGAATTCCGGTCTCCC
DNA 2: TGGTGGCTACGACGGGATT
B15: GUGUGAC (DNA:RNA)
RNA: B1 RNA with U25G, U27G, G28U, C29G, U31C
DNA 1: CAATCTGAATTCCGGTCTCCC
DNA 2: TGGTGGCTACGACGGGATT
B16: GCUGCGC (DNA:RNA)
RNA: B1 RNA with U25G, U26C, A30G, U31C
DNA 1: CAATCTGAATTCCGGTCTCCC
DNA 2: TGGTGGCTACGACGGGATT
B17: UUUAAAU (DNA:RNA)
RNA: B1 RNA with G28A, C29A
DNA 1: CAATCTGAATTCCGGTCTCCC
DNA 2: TGGTGGCTACGACGGGATT
B18: CGUUUCC (DNA:RNA)
RNA: B1 RNA with U25C, U26G, G28U, C29U, A30C, U31C
DNA 1: CAATCTGAATTCCGGTCTCCC
DNA 2: TGGTGGCTACGACGGGATT
B19: CGUUCUG (DNA:RNA)
RNA: B1 RNA with U25C, U26G, G28U, A30U, U31G
DNA 1: CAATCTGAATTCCGGTCTCCC
DNA 2: TGGTGGCTACGACGGGATT
B20: AGUUCUU (DNA:RNA)
RNA: B1 RNA with U25A, U26G, G28U, A30U
DNA 1: CAATCTGAATTCCGGTCTCCC
DNA 2: TGGTGGCTACGACGGGATT

Substitutions are numbered along the chain they refer to; changes in the protein carry UniProt numbers. This is one part of the list.

This assay has as its target T1, RBFOX1 RRM. The experiment in a line: EMSA; HiTS-Eq, 1 nM pool, 10 min; buffer printed only for the single-RNA assays: 10 mM Tris pH 7.5, 150 mM NaCl, 3.4 mM EDTA, 0.001% NP-40, 30 C. The conditions noted are these: tags: His6 N-terminal (pET28a); label: 5' 32P. An outline of the steps: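 Purified RbFox RRM (wild type or mutant) was equilibrated for 10 min in 50 µL with 1 nM of a 5′-radiolabelled pool of RNA with 7 randomized nucleotides, its flanks annealed to DNA oligonucleotides, across increasing protein concentrations. Free RNA was separated by 8% native PAGE, excised, reverse-transcribed, PCR-barcoded and sequenced on an Illumina HiSeq 2500. Relative association constants came from read-count changes of each variant against the control reaction, normalised to the cognate motif.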
(In EMSA bound probe runs differently from free probe, usually more slowly.)
For B1, the binding signal was 0.0269 KA relative to UGCAUGU. Next, B2: 0.00859 KA relative to UGCAUGU; B3: 0.00273 KA relative to UGCAUGU.

B4: the binding signal was 0.0151 KA relative to UGCAUGU. For B5, the binding signal was 0.00732 KA relative to UGCAUGU. On to B6, for which the binding signal is 0.0114 KA relative to UGCAUGU. Next, B7: 0.012 KA relative to UGCAUGU. As to B8, the binding signal was 0.00823 KA relative to UGCAUGU.

On to B9, for which the binding signal was 0.0076 KA relative to UGCAUGU. As to B10, the binding signal was 0.0155 KA relative to UGCAUGU. Regarding B11, the binding signal is 0.00219 KA relative to UGCAUGU. To B12 belongs 0.0117 KA relative to UGCAUGU. Next, B13: 0.00504 KA relative to UGCAUGU. To B14 belongs 0.00062 KA relative to UGCAUGU; to B15, 0.00747 KA relative to UGCAUGU; to B16, 0.0204 KA relative to UGCAUGU. Regarding B17, the binding signal is 0.00331 KA relative to UGCAUGU. To B18 belongs 0.0127 KA relative to UGCAUGU; to B19, 0.0207 KA relative to UGCAUGU; to B20, 0.00753 KA relative to UGCAUGU.
